Measured values as given in PMC6078952.
These are yes or no findings as the source states them, for the method shown.

The chains behind the UniProt entries cited, without tags or fusion partners. Where a name states a change or a piece, a line headed by the entry shows the natural chain unless it says otherwise. A line that says so, or that is headed by a name, gives the form on record, which may keep a tag or linker. Residues count along the entry.
UniProt P02461, residues 154-1221: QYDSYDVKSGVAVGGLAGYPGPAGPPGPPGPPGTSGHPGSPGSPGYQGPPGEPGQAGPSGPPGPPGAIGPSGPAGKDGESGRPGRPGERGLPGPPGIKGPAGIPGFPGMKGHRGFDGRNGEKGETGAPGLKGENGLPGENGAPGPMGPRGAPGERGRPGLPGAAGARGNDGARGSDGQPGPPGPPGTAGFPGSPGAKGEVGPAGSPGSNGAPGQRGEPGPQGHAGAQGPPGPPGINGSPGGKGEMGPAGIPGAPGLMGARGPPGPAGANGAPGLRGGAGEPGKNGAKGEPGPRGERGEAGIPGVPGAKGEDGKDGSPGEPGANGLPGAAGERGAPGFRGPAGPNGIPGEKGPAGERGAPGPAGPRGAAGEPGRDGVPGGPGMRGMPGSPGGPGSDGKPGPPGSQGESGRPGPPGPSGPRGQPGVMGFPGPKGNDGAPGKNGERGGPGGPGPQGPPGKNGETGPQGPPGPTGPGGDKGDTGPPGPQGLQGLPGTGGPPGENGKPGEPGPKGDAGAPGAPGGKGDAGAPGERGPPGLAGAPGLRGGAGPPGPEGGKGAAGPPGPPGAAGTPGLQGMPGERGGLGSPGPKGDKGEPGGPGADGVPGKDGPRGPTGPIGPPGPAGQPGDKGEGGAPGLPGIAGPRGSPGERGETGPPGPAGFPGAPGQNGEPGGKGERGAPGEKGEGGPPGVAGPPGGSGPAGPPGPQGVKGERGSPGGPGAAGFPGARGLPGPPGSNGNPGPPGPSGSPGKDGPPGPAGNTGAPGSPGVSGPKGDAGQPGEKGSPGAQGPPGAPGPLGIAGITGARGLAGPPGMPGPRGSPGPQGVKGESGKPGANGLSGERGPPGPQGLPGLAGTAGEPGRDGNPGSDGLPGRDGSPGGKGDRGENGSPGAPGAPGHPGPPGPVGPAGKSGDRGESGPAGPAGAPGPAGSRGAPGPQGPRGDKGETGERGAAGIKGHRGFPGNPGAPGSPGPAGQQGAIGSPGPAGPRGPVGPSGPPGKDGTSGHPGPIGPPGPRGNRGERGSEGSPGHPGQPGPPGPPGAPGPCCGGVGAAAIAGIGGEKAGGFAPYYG
UniProt P29279, residues 27-349: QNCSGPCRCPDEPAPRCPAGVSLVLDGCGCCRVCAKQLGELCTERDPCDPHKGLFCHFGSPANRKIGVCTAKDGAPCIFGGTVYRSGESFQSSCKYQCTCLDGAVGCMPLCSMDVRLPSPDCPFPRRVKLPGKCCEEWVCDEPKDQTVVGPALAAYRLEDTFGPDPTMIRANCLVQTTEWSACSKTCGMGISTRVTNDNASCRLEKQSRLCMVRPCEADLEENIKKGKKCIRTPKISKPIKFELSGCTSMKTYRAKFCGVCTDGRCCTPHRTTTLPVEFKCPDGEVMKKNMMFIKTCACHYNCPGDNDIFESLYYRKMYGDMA
Endostatin, mutant Asp1675Asn (P39060, form named): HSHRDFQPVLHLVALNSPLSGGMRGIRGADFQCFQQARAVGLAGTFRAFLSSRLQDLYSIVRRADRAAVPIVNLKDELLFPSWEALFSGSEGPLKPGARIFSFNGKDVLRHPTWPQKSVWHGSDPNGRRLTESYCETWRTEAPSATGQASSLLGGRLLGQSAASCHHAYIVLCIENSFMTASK
Lysyl oxidase propeptide (LOX-PP) (Pro24Leu) (P28300, form named): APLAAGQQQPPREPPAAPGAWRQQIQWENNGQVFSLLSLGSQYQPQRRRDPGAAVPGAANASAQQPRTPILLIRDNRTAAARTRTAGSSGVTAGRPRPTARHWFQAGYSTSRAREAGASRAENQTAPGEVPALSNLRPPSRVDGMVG

Legend:
Assay in all cases: SPR; SPR imaging (SPRi, Biacore Flexchip): partners spotted in triplicate on a bare gold chip at 0.06 to 1 mg/ml; purified LOX-PP injected at 2 µM and recirculated for 20 min; PBS with 0.05% Tween 20, 25 °C; both purified
Biglycan = target: T1, Biglycan (UniProt P21809)
T1 sequence: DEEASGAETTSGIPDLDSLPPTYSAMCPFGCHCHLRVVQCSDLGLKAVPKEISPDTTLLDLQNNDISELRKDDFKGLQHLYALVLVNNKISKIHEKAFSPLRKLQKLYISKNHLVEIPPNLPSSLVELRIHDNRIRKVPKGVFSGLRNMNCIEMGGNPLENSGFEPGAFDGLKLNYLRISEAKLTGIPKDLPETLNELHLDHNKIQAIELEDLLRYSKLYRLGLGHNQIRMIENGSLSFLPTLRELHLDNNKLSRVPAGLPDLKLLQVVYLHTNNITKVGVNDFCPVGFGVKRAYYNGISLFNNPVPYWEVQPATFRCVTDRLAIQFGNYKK

Collagen III = Collagen III (UniProt P02461)
[1] = target: Connective tissue growth factor (CTGF) (UniProt P29279)
[2] = target: T2, Procollagen C-proteinase enhancer 1 (PCPE-1) (UniProt Q15113)
T2 sequence: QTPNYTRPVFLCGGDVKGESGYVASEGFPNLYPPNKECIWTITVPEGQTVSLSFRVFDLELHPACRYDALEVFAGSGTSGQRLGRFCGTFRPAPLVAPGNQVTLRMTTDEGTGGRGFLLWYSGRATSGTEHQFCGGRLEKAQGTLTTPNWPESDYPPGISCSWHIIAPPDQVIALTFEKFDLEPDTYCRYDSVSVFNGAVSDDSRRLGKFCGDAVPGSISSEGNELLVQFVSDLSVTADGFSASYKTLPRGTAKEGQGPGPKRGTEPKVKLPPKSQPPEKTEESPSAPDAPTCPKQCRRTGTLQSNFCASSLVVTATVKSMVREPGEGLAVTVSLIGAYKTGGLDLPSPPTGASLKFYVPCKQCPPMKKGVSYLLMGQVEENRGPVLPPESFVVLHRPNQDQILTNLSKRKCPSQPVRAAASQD

Reelin = target: T3, Reelin (UniProt Q60841)
T3 sequence: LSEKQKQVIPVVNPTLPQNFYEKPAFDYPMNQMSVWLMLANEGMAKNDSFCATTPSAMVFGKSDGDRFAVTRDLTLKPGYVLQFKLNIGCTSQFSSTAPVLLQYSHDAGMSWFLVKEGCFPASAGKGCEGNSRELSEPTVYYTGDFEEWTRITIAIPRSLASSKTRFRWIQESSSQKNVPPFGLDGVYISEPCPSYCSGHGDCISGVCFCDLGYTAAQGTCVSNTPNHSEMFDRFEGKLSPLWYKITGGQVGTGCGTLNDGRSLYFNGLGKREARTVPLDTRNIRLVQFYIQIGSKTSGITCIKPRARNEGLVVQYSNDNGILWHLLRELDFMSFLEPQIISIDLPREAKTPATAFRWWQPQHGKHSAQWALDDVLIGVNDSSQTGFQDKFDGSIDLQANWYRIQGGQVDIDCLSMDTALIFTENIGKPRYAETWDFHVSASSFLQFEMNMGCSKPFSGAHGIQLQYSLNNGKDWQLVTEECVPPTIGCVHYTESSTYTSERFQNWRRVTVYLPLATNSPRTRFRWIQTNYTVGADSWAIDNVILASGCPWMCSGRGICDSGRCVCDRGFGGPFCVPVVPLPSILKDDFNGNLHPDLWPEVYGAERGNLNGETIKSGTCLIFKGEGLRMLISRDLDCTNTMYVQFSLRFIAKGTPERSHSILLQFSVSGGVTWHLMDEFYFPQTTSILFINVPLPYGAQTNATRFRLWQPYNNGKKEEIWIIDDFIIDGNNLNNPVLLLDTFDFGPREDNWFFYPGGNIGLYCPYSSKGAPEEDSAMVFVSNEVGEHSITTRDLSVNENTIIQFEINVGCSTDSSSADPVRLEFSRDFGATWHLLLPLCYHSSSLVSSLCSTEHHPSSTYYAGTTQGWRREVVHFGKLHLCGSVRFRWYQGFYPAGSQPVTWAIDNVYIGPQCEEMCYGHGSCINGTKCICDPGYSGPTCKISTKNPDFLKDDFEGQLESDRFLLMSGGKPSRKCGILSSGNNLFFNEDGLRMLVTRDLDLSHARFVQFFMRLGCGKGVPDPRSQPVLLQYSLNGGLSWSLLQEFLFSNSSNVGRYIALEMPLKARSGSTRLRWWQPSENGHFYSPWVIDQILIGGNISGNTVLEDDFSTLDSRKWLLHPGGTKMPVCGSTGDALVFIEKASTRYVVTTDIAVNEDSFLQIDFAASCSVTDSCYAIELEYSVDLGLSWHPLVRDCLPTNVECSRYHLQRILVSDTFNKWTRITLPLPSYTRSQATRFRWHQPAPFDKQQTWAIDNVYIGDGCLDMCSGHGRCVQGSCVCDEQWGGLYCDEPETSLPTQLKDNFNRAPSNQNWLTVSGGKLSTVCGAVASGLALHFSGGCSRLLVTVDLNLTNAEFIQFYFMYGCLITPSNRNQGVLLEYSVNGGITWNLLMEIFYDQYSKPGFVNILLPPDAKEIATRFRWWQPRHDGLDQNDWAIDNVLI

[3] = target: Endostatin, mutant Asp1675Asn (UniProt P39060)

- binding (Biglycan): no binding (tested: 2 µM)
- binding (Collagen III): no binding (tested: 2 µM)
- binding [1]: no binding (tested: 2 µM)
- binding [2]: no binding (tested: 2 µM)
- binding (Reelin): no binding (tested: 2 µM)
- binding [3]: no binding (tested: 2 µM)
Substance: Lysyl oxidase propeptide (LOX-PP) (Pro24Leu) (from UniProt P28300 22-168) (domain or fragment)
